Experimental data as given in PubChem BioAssay AID1963576 (National Center for Advancing Translational Sciences (NCATS), 2024).
The campaign covered roughly 46,000 compounds. About 60 (0.1%) were called active. Another 3% or so got no clear call; they are omitted. Calls follow the shape of the dose curve; as a rule, active = well fitted inhibition curve with a large enough effect; inconclusive = small, poorly fitted or top-dose-only effect; inactive = no such curve, though single readings can be large or run the other way. The list shows a part of the results.

Assay: Primary qHTS assay for Inhibitors of ovarian cancer metastasis using an organotypic tumor microenvironment (TME) model. Also: nearly all actives have a fitted effect of over 65% in size.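 As to Potency: count of GFP cancer cells still attached after washing and fixation.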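 As to activity change, negative = inhibition: plate controls were DMSO wells for no effect and tomatine positive control wells for full effect.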
Details: SKOV3ip1-GFP adhesion/invasion on 3D omental model, fluorescence; series mostly up to 45.8 µM; activity change, negative = inhibition: at the top concentration
In short: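 Adhesion/invasion was scored as fixed GFP-labeled SKOV3ip1 cell counts (488/509 nm), normalized to DMSO and tomatine controls. Cancer cells in serum-free medium, with four compound doses (0.36-46 umol/L), sat 2 hr at RT then 16 hr at 37 C on a 48 hr fibroblast/mesothelial/ECM culture.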
Potency is read from the fitted curve at half-maximal effect.

Row | Compound | outcome | activity change, negative = inhibition | Potency
1 | Cc1ccc(C)c(CN2C(=O)c3ccccc3S(=O)c3ccc(C(=O)NCCC4=CCCCC4)cc32)c1 (centres undefined) | inactive | – | –
2 | Cc1ccccc1NS(=O)(=O)c1nnc(NC(=O)c2ccco2)s1 | – | inactive: 25.7% | –
3 | CCOC(=O)c1c(S(=O)(=O)NCC(=O)N(C)c2ccc(C)cc2)c(C)n(C)c1C | – | inactive: 1.11% | –
4 | O=C(Nc1ccc(Cl)c(-c2nc3cc(Cl)ccc3o2)c1)c1cc2ccccc2o1 | – | inactive: -2.87% | –
5 | COc1cc(NC(=O)CC(c2cccs2)N2Cc3ccccc3C2=O)cc(OC)c1OC (centres undefined) | – | inactive: -3.94% | –
6 | CCOC(=O)c1cc(C)n(CC2CCC(C(=O)Nc3cc(OC)cc(OC)c3)CC2)c1C (centres undefined) | – | inactive: -12.2% | –
7 | CCCNC(=O)c1cnc2c(-c3ccc(OCC)c(OCC)c3)c(C)nn2c1-c1ccccc1 | inactive | – | –
8 | CC(C)Oc1ccc(C(=O)Nc2nonc2-c2ccc(OC(C)C)cc2)cc1 | – | inactive: -7.43% | –
9 | COC(=O)CCN(C(=O)C1CCN(S(=O)(=O)c2c(C)noc2/C=C/c2ccccc2F)CC1)c1ccccc1 | – | inactive: -9.73% | –
10 | CCc1cccc(NC(=O)Cn2nc3c4cc(F)ccc4n(Cc4cccc(C)c4)cc-3c2=O)c1 | – | inactive: -9.02% | –
11 | CCc1ccccc1N1C(=O)N(CC(=O)c2ccc(OC)cc2)c2ccccc2S1(=O)=O | – | inactive: 11% | –
12 | Clc1cccc(CSc2nnc(C3CCNCC3)o2)c1 | – | inactive: -23.7% | –
13 | CC(C)n1c(=N)c(C(=O)NC2CCCCC2)cc2c(=O)n3ccccc3nc21 | – | inactive: 9.25% | –
14 | COc1ccc(NC(=O)C(=O)NCc2ccco2)cc1 | – | inactive: -4.16% | –
15 | CCN(CCCNC(=O)Cn1ncc2c([nH]c3ccc(C)cc32)c1=O)Cc1ccccc1 | – | inactive: 2.08% | –
16 | CC(N[C@H]1CCCC[C@H]1NC(=O)c1ccc(Cl)cc1)c1cccc2ccccc12 (some centres undefined) | – | inactive: -11.8% | –
17 | CCSc1nn(CC(=O)Nc2cccc(Cl)c2)c(N)c1S(=O)(=O)c1ccc(OC)cc1 | – | inactive: -18.6% | –
18 | COc1ccc(OC)c(-c2noc(N3CCN(c4cccc(C)c4C)CC3)n2)c1 | – | inactive: -3.89% | –
19 | COc1cccc(CN(C(=O)c2cccc(C)c2)C2CCS(=O)(=O)C2)c1 (centres undefined) | – | inactive: -4.62% | –
20 | CC(=O)c1ccc(NC(=O)Cn2nc(C(F)(F)F)c3c2CCCC3)cc1 | – | inactive: -10.4% | –
21 | CCCN(CCC)C(=O)Cn1c(=O)n(Cc2ccc(C(=O)NCCc3ccc(Cl)cc3)cc2)c(=O)c2ccccc21 | – | inactive: 40.6% | –
22 | COc1ccccc1Cn1cc(C(=O)c2ccc(C)cc2)c(=O)c2cc(F)cc(F)c21 | – | inactive: 1.95% | –

Row | Compound | outcome | activity change, negative = inhibition | Potency
23 | CC(C)CC(=O)Nc1nnc(S(=O)(=O)N2CCc3ccccc32)s1 | – | inactive: 3.49% | –
24 | Cc1ccc(-n2nc3c(=O)n(CCCC(=O)NC(C)c4ccccc4)nc(C)c3c2C)cc1 (centres undefined) | – | inactive: 0.536% | –
25 | CCOC(=O)/C(C#N)=C/c1ccc(-c2ccc(C)cc2)o1 | inactive | – | –
26 | Cc1ccc2oc(C(=O)Nc3sc4c(c3C(=O)NCc3cccnc3)CCCC4)cc(=O)c2c1 | – | inactive: -8.86% | –
27 | COC(=O)c1ccccc1NC(=O)C1=C(C)C(=O)OC12CCC(C)CC2 (centres undefined) | – | inactive: -6.76% | –
28 | COC(=O)CC1Oc2ccc(C)cc2-n2cc(-c3ccc(C)cc3)nc21 (centres undefined) | – | inactive: 5.36% | –
29 | Cc1ccc(CSc2oc(-c3cccs3)nc2S(=O)(=O)c2ccc(C)cc2)cc1 | – | inactive: 2.23% | –
30 | COc1ccc(-c2nc(SCC(=O)Nc3ccc4c(c3)OCCO4)c(-c3ccccc3)[nH]2)cc1 | – | inactive: -23.2% | –
31 | CCc1ccc(NC(=O)Cn2c(=O)n(-c3cc(C)cc(C)c3)c(=O)c3oc4ccccc4c32)cc1 | – | inactive: -3.87% | –
32 | CCOc1ccc(CCNC(=O)CSc2cc(=O)n(C)c3ccc(Cl)cc23)cc1OCC | inactive | – | –
33 | COc1ccccc1NS(=O)(=O)c1cc2c(cc1Cl)NC(=O)CO2 | – | inactive: -8.27% | –
34 | CN(C)S(=O)(=O)c1ccc(C(=O)Nc2ccc(-n3nncc3-c3ccccc3)cc2)cc1 | – | inactive: -4.07% | –
35 | COc1ccccc1N1CCN(C(=O)Cn2ncc3c(=O)oc4ccc(C)cc4c32)CC1 | inactive | – | –
36 | Cc1cccc(N2CCN(C(=O)CCSCc3ccccc3F)CC2)c1C | inactive | – | –
37 | CCN1C(=O)C2(c3ccccc31)c1c(oc3ccc(F)cc3c1=O)C(=O)N2CCCOC (centres undefined) | inactive | – | –
38 | Cc1ccc(NC(=O)CSc2ccc(-c3sc(-c4ccccc4)nc3C)nn2)cc1F | inactive | – | –
39 | CC(C)Oc1ccc(CNC(=O)c2ccc(Cn3c(=O)c4cccn4c4cccnc43)cc2)cc1 | inactive | – | –
40 | CCCc1cnc2c(c1SCc1ccc(C(F)(F)F)cc1)c(=O)n(C)c(=O)n2C | – | inactive: 1.59% | –
41 | CCN1CCN(c2cc(C)c3cc(NC(=O)c4cc(Cl)ccc4OC)ccc3n2)CC1 | – | – | active: 3.55 µM
42 | Cc1nn2c(=O)cc(COC(=O)CNC(=O)c3ccc(F)cc3)nc2s1 | – | inactive: 4.53% | –
43 | COc1ccc(C2=NC(C)(C)N(CC(=O)Nc3ccc(F)c(F)c3)C2=O)cc1 | – | inactive: -8.54% | –
44 | Cc1ccc(N(Cc2cccs2)C(=O)COc2cccc(C)c2)cc1 | inactive | – | –
